# A collection of fitness landscapes (doi:10.1126/science.1257360)
# The list shows a part of the results.
# B1: PhoQ; a variant is named by its letters at X, in order, P23837 (parent)
# chain: MKKLLRLFFPLSLRVRFLLATAAVVLVLSLAYGMVALIGYSVSFDKTTFRLLRGESNLFYTLAKWENNKLHVELPENIDKQSPTMTLIYDENGQLLWAQRDVPWLMKMIQPDWLKSNGFHEIEADVNDTSLLLSGDHSIQQQLQEVREDDDDAEMTHSVAVNVYPATSRMPKLTIVVVDTIPVELKSSYMVWSWFIYVLSANLLLVIPLLWVAAWWSLRPIEALAKEVRELEEHNRELLNPATTRELTSLVRNLNRLLKSERERYDKYRTTLTDLTHSLKTPLXXLQXXLRSLRSEKMSVSDAEPVMLEQISRISQQIGYYLHRASMRGGTLLSRELHPVAPLLDNLTSALNKVYQRKGVNISLDISPEISFVGEQNDFVEVMGNVLDNACKYCLEFVEISARQTDEHLYIVVEDDGPGIPLSKREVIFDRGQRVDTLRPGQGVGLAVAREITEQYEGKIVAGESMLGGARMEVIFGRQHSAPKDE
# Variants of: B1
# Assay: enrichment ratio after two sorts for PhoP signalling (ratio (wild type AVST 3.29)); higher = more functional
# Details: with PhoP (E. coli)
row,Variant,enrichment ratio
1,AGCK,16.1
2,VFIY,≤ 0.25
3,TSCL,19.6
4,DKYC,≤ 0.25
5,RWGS,≤ 0.25
6,SPMS,≤ 0.25
7,HMRY,≤ 0.25
8,AFKY,≤ 0.25
9,MQQD,≤ 0.25
10,PNAP,≤ 0.25
11,KPPW,≤ 0.25
12,VANQ,≤ 0.25
13,ATNK,≤ 0.25
14,ENGM,≤ 0.25
15,QTQN,≤ 0.25
16,YRQN,≤ 0.25
17,QIWS,≤ 0.25
18,YSHN,≤ 0.25
19,ITVE,≤ 0.25
20,STRQ,≤ 0.25
21,WVHQ,≤ 0.25
22,GWNF,≤ 0.25
23,ERGV,≤ 0.25
24,YKQE,≤ 0.25
25,QIIW,≤ 0.25
26,FVSA,≤ 0.25

row,Variant,enrichment ratio
1,YEIG,4.09
2,TRSI,2.03
3,GTFS,≤ 0.25
4,GATK,≤ 0.25
5,LPGL,≤ 0.25
6,YPRL,≤ 0.25
7,RSDI,≤ 0.25
8,HDDI,≤ 0.25
9,DFGR,≤ 0.25
10,DHEP,≤ 0.25
11,MKIR,≤ 0.25
12,YARF,≤ 0.25
13,IWAK,≤ 0.25
14,YSET,≤ 0.25
15,YFSW,≤ 0.25
16,EKAG,≤ 0.25
17,HNYV,≤ 0.25
18,PAVP,≤ 0.25
19,KKFR,≤ 0.25
20,ERIF,≤ 0.25
21,LGMR,≤ 0.25
22,DSRN,≤ 0.25
23,SSSW,0.264
24,EDSI,≤ 0.25
25,EQRP,≤ 0.25
26,KNIF,≤ 0.25

row,Variant,enrichment ratio
1,PVQF,≤ 0.25
2,THYG,≤ 0.25
3,HEKG,≤ 0.25
4,RANR,≤ 0.25
5,KGWH,≤ 0.25
6,PNAG,≤ 0.25
7,KNID,≤ 0.25
8,MEFM,≤ 0.25
9,HCFL,≤ 0.25
10,SEGI,5.82
11,KYQQ,≤ 0.25
12,PARY,≤ 0.25
13,LPRS,≤ 0.25
14,FPVE,≤ 0.25
15,KPPF,≤ 0.25
16,PRCD,≤ 0.25
17,PSDL,≤ 0.25
18,RDMR,≤ 0.25
19,IIHF,≤ 0.25
20,QRIL,≤ 0.25
21,EGWC,≤ 0.25
22,GIFK,≤ 0.25
23,RMAG,≤ 0.25
24,GMVM,3.22
25,KHPW,≤ 0.25
26,PIEH,≤ 0.25

row,Variant,enrichment ratio
1,NGVF,≤ 0.25
2,VGGC,≤ 0.25
3,RVQY,≤ 0.25
4,MQAM,2.71
5,WLML,≤ 0.25
6,FGNR,0.48
7,FRFT,≤ 0.25
8,YQGK,≤ 0.25
9,TVTP,≤ 0.25
10,AHVW,≤ 0.25
11,DWLG,≤ 0.25
12,SPHD,≤ 0.25
13,IKWF,≤ 0.25
14,ITRD,≤ 0.25
15,FYVF,≤ 0.25
16,TYIW,≤ 0.25
17,QLTC,5.06
18,PDQF,≤ 0.25
19,KHLS,≤ 0.25
20,DASQ,≤ 0.25
21,TIPI,1.26
22,APFV,≤ 0.25
23,ASAP,≤ 0.25
24,TLND,1.48
25,GRPK,0.916
26,AWWP,≤ 0.25

row,Variant,enrichment ratio
1,QVMQ,≤ 0.25
2,IMNK,≤ 0.25
3,WVGD,≤ 0.25
4,NTNW,≤ 0.25
5,SSDR,≤ 0.25
6,KILH,≤ 0.25
7,RADT,≤ 0.25
8,FEYC,≤ 0.25
9,WPYH,≤ 0.25
10,DTAC,≤ 0.25
11,NQQL,≤ 0.25
12,PYRH,≤ 0.25
13,SVMH,22.9
14,YLLK,≤ 0.25
15,VQWI,≤ 0.25
16,QWDY,≤ 0.25
17,SYAD,≤ 0.25
18,FKWS,≤ 0.25
19,VSGV,0.304
20,IFVC,≤ 0.25
21,QIPF,≤ 0.25
22,NRET,≤ 0.25
23,IQYR,≤ 0.25
24,VRQP,≤ 0.25
25,RTCT,≤ 0.25
26,DKYA,≤ 0.25

row,Variant,enrichment ratio
1,VCIE,≤ 0.25
2,MPWD,≤ 0.25
3,EPSL,≤ 0.25
4,YGEW,≤ 0.25
5,IETW,≤ 0.25
6,THTH,4.46
7,SERR,≤ 0.25
8,RASD,≤ 0.25
9,WIRK,≤ 0.25
10,WMHK,≤ 0.25
11,FTNK,≤ 0.25
12,NQDI,≤ 0.25
13,WMFA,≤ 0.25
14,DTQE,≤ 0.25
15,LELS,10.9
16,MCHT,≤ 0.25
17,HMQG,≤ 0.25
18,SNWD,≤ 0.25
19,SWCQ,≤ 0.25
20,NFTG,≤ 0.25
21,TRTT,≤ 0.25
22,ICLS,1.16
23,PQLM,≤ 0.25
